# Hit rate of the full screen: of about 290,000 compounds, about 1,100 (0.38%) were called active. This list was built around the results that the source calls inconclusive (neither active nor inactive); the mix of calls is not that of the screen. Calls come from the whole dose curve; as a rule, active = well fitted inhibition curve with a large enough effect; inconclusive = small, poorly fitted or top-dose-only effect, or another doubt; inactive = no such curve, though single readings can be large or run the other way. Where the call is inconclusive, the potency comes from a doubtful curve fit.
# Molecular target: Pyruvate kinase (Leishmania mexicana) (UniProt Q27686)
# Sequence of UniProt Q27686 (Q27686 whole entry, looked up): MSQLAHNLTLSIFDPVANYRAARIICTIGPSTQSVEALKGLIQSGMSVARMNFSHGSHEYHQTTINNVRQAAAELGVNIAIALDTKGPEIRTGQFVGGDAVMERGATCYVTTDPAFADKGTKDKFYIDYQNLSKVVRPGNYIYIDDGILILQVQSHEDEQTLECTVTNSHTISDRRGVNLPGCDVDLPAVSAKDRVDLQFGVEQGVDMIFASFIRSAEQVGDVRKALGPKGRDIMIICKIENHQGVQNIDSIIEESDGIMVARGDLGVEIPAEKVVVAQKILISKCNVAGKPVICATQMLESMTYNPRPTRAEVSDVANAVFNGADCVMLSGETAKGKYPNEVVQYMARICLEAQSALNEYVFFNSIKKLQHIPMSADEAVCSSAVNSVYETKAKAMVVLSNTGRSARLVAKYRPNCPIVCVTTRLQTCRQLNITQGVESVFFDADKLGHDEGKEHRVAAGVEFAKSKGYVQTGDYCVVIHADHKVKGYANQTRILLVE
# Assay: qHTS Assay for Inhibitors of Leishmania Mexicana Pyruvate Kinase (LmPK)
# Conditions: purified LmPK, Kinase-Glo ATP luminescence, 1 h; activity change, negative = inhibition: at 57.5 µM (top of the series) unless noted
# Procedure, shortened: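 Purified LmPK (0.1 nM) with 0.5 mM PEP and 0.1 mM ADP in imidazole buffer pH 7.2 with MgCl2/KCl, 1 h at room temperature. ATP formed was read by luciferase luminescence and normalized to no-enzyme and uninhibited controls.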
# % is set by controls: 0 for no effect and ±100 for the full control effect; potency is the fitted concentration of half-maximal effect; tags give direction and shape of the fitted curve.
SMILES,Potency,"activity change, negative = inhibition"
COC(=O)c1c(C)n(Cc2ccccc2)c2ccc(O)cc12,"inconclusive: 25.1 µM [falling, partial curve]",–
CC(C)CC(=O)NC1(C(F)(F)F)C(=O)Nc2c1c(=O)[nH]c(=O)n2Cc1ccco1 (stereo not drawn),–,inactive: 9.64%
Oc1cccc(/C=N/Nc2nn3cnnc3c3ccccc23)c1,active: 14.1 µM,–
CNC(=O)c1[nH]cnc1C(=O)N[C@@H](Cc1ccccc1)C(=O)OCc1ccccc1,–,inactive: 3.54%
c1csc(-c2nc(-c3ccncc3)no2)c1,"inconclusive: 25.1 µM [falling, partial curve]",–
Cc1cc(C)cc(NC(=O)CSc2nc3c(oc4ccccc43)c(=O)n2-c2ccccc2)c1,–,inactive: 3.46%
CC1CCN(C(=O)c2ccc3c(c2NCCO)C(=O)c2ccccc2C3=O)CC1,"inconclusive: 22.4 µM [falling, partial curve]",–
Cc1ccc(C(=O)Nc2cc3ccccc3oc2=O)cc1,active: 12.6 µM,–
Cc1cccc(/C(N)=N/OC(=O)c2ccc(F)cc2)c1,active: 4.47 µM,–
CC(C)c1nnc(NC(=O)c2cccs2)s1,"inconclusive: 15.8 µM [falling, partial curve]",–
Cc1[nH]n(-c2ccccc2)c(=O)c1Sc1ccc(Cl)cc1,–,inactive: 1.07%
O=C(Nc1cccc2nsnc12)c1ccc2c(c1)OCCO2,"inconclusive: 15.8 µM [falling, partial curve]",–
CC1(C)Cc2c(sc3nc(SCC(=O)O)[nH]c(=O)c23)CO1,"inconclusive: 25.1 µM [falling, partial curve]",–
O=C(CCc1ccccc1)N=C1SC2CS(=O)(=O)CC2N1c1ccccc1F (stereo not drawn),–,inactive: -1.91%
CC1=CC(=Nc2c(C)n(C)n(-c3ccccc3)c2=O)C=C(C)C1=O,"inconclusive: 22.4 µM [falling, single point]",–
O=S(=O)(NCC1CCN(Cc2ccccc2)CC1)c1ccccc1C(F)(F)F,–,inactive: 0.411%
COc1cc(/C=C/C(=O)c2c(O)ccc3c(C)cc(=O)oc23)ccc1O,–,inactive: -2.37%
COc1ccccc1OCCCOc1ccc(/C=C2\SC(=O)NC2=O)cc1OC,"inconclusive: 31.6 µM [falling, single point]",–
COc1cccc(-n2c(-c3ccccc3)c[nH]c2=S)c1,"inconclusive: 28.2 µM [falling, partial curve]",–
Cc1occc1C(=O)Nc1ccc2c(c1)OCO2,active: 14.1 µM,–
COc1cccc(C(=O)/C=C/c2ccc(SC)cc2)c1,"inconclusive: 31.6 µM [falling, single point]",–
COc1cccc2cc(-c3csc(NC(=O)CCC(=O)NCCCN4CCC(C)CC4)n3)c(=O)oc12,"inconclusive: 25.1 µM [falling, partial curve]",–
O=C(Nc1ccc(C(=O)N2CCCCC2)cc1)C1=CSCCO1,"inconclusive: 20 µM [falling, partial curve]",–
Oc1ccc(-c2nc3ccccc3s2)c(O)c1,"inconclusive: 35.5 µM [falling, single point]",–
O=C(c1ccc(Cl)c([N+](=O)[O-])c1)N(Cc1ccco1)C1CCS(=O)(=O)C1 (stereo not drawn),–,inactive: 0.568%
C=CCn1nnnc1SCC(=O)Nc1ccc(OC)cc1,–,inactive: -2.49%

SMILES,Potency,"activity change, negative = inhibition"
CC(=O)Nc1ccc(N/C=C/C(=O)c2ccco2)cc1,"inconclusive: 15.8 µM [falling, partial curve]",–
COc1cccc(-c2nc3cc(C)ccc3o2)c1,active: 14.1 µM,–
O=S(=O)(NCc1ccccn1)C(F)(F)F,–,inactive: 0.728%
CCOC(=O)Cc1csc(NC(=O)c2sc3nc4ccc(CC)cc4cc3c2N)n1,"inconclusive: 12.6 µM [falling, partial curve]",–
N/C(=N\N=C\c1ccc([N+](=O)[O-])cc1)c1nonc1N,–,inactive: -6.15%
Cc1cc(/C(N)=N/OC(=O)c2ccccc2Cl)no1,active: 22.4 µM,–
O=C(Cn1nnc(-c2cccs2)n1)NCCc1ccccc1,–,inactive: 0.819%
Cc1ccc2[nH]c(=O)c(CN(Cc3ccccc3)C(=S)NCCCN(C)C)cc2c1,active: 15.8 µM,–
c1ccc(-c2nnc(-c3ccncc3)o2)cc1,"inconclusive: 14.1 µM [falling, partial curve]",–
N/C(=N\OC(=O)c1ccccc1Cl)c1cccnc1,"inconclusive: 22.4 µM [falling, partial curve]",–
CC(C)(C)NC(=O)CN(Cc1ccc2c(c1)OCO2)C(=O)CCC(=O)Nc1nccs1,"inconclusive: 35.5 µM [falling, single point]",–
CN(C)c1ccc(N/C=C/C(=O)c2ccc(F)cc2)cc1,active: 14.1 µM,–
O=C1C(C=Nc2ccccc2O)=C(O)c2ccccc21,"inconclusive: 12.6 µM [falling, partial curve]",–
c1ccc(-c2cn(C[C@H]3CC[C@@H]([C@@H]4CC[C@H](Cn5cc(-c6ccccn6)nn5)O4)O3)nn2)nc1,–,inactive: -4.07%
O=C(Nc1ccc([N+](=O)[O-])cc1)C(=O)Nc1cccc(C(=O)O)c1,active: 25.1 µM,–
Cn1cccc1/C=N/n1c(-c2ccccc2)n[nH]c1=S,active: 7.94 µM,–
CC(=O)Nc1ccc(/C=C/C(=O)c2ccccc2)cc1,"inconclusive: 17.8 µM [falling, partial curve]",–
Cc1ccc(/C=N/NC(=O)c2ccoc2C)o1,"inconclusive: 22.4 µM [falling, single point]",–
O=C(N/N=C/c1ccccc1Cl)c1n[nH]c2c1CCCC2,"inconclusive: 12.6 µM [falling, partial curve]",–
CCOc1ccc(NC(=O)Cc2ccccc2)cc1,"inconclusive: 25.1 µM [falling, partial curve]",–
COc1cc(C2C3=C(CC(C)(C)CC3=O)N(C)C3=C2C(=O)CC(C)(C)C3)ccc1O,"inconclusive: 39.8 µM [falling, single point]",–
CCc1c(C)sc2nc(SCC(=O)Nc3cc(C)on3)n(CCOC)c(=O)c12,"inconclusive: 6.31 µM [falling, single point]",–
O=C(/C=C/c1ccc(O)c(O)c1)OC1C(O)CC(OC(=O)/C=C/c2ccc(O)c(O)c2)(C(=O)O)CC1O (stereo not drawn),active: 2 µM,–
COc1cccc(NC(=O)c2sc(NC(=O)c3ccncc3)nc2C)c1,"inconclusive: 31.6 µM [falling, single point]",–
COc1ccc(-c2cc(C(=O)NCCCn3ccnc3)no2)cc1OC,–,inactive: -1.54%
COc1cc(OC)c(C2CC(=O)N3CN(C)CSC3=C2C#N)cc1OC (stereo not drawn),"inconclusive: 20 µM [falling, single point]",–

SMILES,Potency,"activity change, negative = inhibition"
COc1ccc2c(c1)sc1nc(-c3ccccc3)cn12,active: 12.6 µM,–
CC(=O)Nc1c(C(=O)O)[nH]c2ccccc12,–,inactive: 0.152%
CC(=O)Nc1ccc(-n2c(C)nc(=O)c(-c3ccccc3)c2C)cc1,–,inactive: 6.31%
CCOC(=O)C1=C(O)C(=O)N(c2ccccc2)C1c1cccc([N+](=O)[O-])c1 (stereo not drawn),"inconclusive: 39.8 µM [falling, single point]",–
Cc1ccc(-c2cnn(-c3ccccc3)c2N)cc1,"inconclusive: 31.6 µM [falling, partial curve]",–
COc1ccc(C2CC(C)(c3ccc(OC)cc3OC)Nc3ccccc3N2)c(OC)c1 (stereo not drawn),"inconclusive: 15.8 µM [falling, partial curve]",–
N#Cc1c(Cl)nsc1NC(=O)c1ccccc1,–,inactive: 4.51%
CCn1c(-c2ccccc2)c[nH]c1=S,active: 14.1 µM,–
Cc1nn(CCc2n[nH]c(=S)n2C2CCCCC2)c(C)c1Br,active: 7.94 µM,–
CNCc1ccccc1Sc1cc(O)ccc1O,"inconclusive: 31.6 µM [falling, single point]",–
Cc1c(C(=O)NC2=NCCS2)oc2ccccc12,"inconclusive: 14.1 µM [falling, partial curve]",–
Clc1ccc(-c2nc(-c3ccccn3)no2)cc1Cl,"inconclusive: 15.8 µM [falling, partial curve]",–
Cc1nn(CC(=O)c2ccccc2Cl)c(C)c1[N+](=O)[O-],"inconclusive: 17.8 µM [falling, partial curve]",–
CC(C)n1cnc2cc(NCc3nc4ccccc4n3C)ccc21,"inconclusive: 39.8 µM [falling, single point]",–
COc1cc(-c2n[nH]c(=S)n2-c2ccccc2C(F)(F)F)cc(OC)c1OC,active: 17.8 µM,–
CC(=O)c1cnc(Nc2nc(C)c3ccc(C)cc3n2)nc1C,–,inactive: 0.644%
Cc1cc(=O)n2c3c(sc2n1)C(=O)N(Cc1ccccc1)C3=O,"inconclusive: 25.1 µM [falling, single point]",–
COc1cc([N+](=O)[O-])c(OC)cc1SCc1n[nH]c(=S)n1-c1ccc(F)cc1,"inconclusive: 35.5 µM [falling, single point]",–
Cc1cnn(-c2cc(N/N=C/c3ccccc3)ncn2)c1,–,inactive: -0.0198%
C/C(=N/OC(=O)c1ccccc1)c1oc(C)nc1C,"inconclusive: 14.1 µM [falling, partial curve]",–
Oc1ccc(-c2cn3ccccc3n2)cc1O,"inconclusive: 2.82 µM [falling, full curve]",–
Cc1ccc(-c2noc(CCC(=O)NC3CC3)n2)cc1,–,inactive: -3.8%
Cc1cccnc1NC(=S)Nc1ncccc1C,"inconclusive: 12.6 µM [falling, partial curve]",–
O=c1oc2ccccc2cc1-c1cn(-c2ccccc2)c(=S)[nH]1,"inconclusive: 7.94 µM [falling, partial curve]",–
CCOc1ccc(Cc2c(C)[nH]c3ccc(C(=O)O)cc3c2=S)cc1,"inconclusive: 35.5 µM [falling, single point]",–
O=C(O)/C=C/c1cnn(-c2ccccc2)c1,"inconclusive: 31.6 µM [falling, partial curve]",–
